Experimental data as given in publication PMC4336329 (PLoS ONE, 2015).
Among all 310,000 compounds or so, about 14,000 (4.5%) showed an effect of 50% or more. Effects have a minus sign here. This is one part of the list.

Target: human ether-à-go-go-related gene (hERG) potassium channel (human, UniProt Q12809)
Experiment: primary screen, population patch clamp on CHO cells stably expressing hERG
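Note: peak tail current of the secondary pulse compared with the same well before compound.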

human ether-à-go-go-related gene (hERG) potassium channel, sequence (Q12809 whole entry, looked up): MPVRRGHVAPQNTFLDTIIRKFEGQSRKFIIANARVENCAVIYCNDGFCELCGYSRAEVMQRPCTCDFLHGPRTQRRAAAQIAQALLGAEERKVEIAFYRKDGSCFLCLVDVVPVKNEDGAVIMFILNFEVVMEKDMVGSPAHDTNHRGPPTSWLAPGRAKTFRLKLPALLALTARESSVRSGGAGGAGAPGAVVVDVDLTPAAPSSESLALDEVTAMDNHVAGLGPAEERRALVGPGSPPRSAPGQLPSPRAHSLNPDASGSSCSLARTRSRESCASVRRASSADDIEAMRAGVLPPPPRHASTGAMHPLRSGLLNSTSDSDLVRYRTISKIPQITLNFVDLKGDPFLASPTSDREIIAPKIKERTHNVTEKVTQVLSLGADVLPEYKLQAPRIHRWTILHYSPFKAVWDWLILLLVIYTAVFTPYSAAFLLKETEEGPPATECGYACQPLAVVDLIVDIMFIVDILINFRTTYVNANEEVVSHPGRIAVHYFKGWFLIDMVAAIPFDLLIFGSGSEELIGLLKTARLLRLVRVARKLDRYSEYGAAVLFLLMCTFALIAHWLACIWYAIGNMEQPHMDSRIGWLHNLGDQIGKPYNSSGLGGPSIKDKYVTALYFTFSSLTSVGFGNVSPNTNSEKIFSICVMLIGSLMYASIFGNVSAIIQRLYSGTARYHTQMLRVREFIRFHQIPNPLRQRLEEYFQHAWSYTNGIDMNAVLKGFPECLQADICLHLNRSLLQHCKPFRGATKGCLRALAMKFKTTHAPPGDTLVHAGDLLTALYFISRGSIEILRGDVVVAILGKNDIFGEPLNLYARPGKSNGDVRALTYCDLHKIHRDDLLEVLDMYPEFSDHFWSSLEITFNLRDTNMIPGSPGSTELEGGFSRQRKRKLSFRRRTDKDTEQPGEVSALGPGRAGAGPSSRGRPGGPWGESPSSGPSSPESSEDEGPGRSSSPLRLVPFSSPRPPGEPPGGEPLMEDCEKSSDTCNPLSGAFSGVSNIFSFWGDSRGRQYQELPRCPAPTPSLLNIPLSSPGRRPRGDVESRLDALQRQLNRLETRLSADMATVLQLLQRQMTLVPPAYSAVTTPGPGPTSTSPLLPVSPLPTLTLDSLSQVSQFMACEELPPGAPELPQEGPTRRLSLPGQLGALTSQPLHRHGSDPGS

Point of comparison: `O=C(CN1C(=O)S/C(=C\c2ccc(O)cc2)C1=O)c1ccccc1`, “hERG current change (%, negative = inhibition) at 10uM” value 12.5%. Against it:
- O=C(Nc1ccn(Cc2c(F)c(F)cc(F)c2F)n1)c1ccc(COc2cc(Cl)ccc2Cl)o1 — lower, 6.83%
- COCCCNC(=O)COc1ccc(Cl)c(C)c1 — lower, -7.29%
- O=C(OCC(=O)N1CCCC1)c1cc([N+](=O)[O-])ccc1Cl — higher, 13.7%
- O=C(Nc1ccc(C(=O)N2CCCC2)cc1)c1ccc2c(c1)OCO2 — lower, -0.403%
- CN(Cc1ccccc1)C(=O)c1nc2ccccn2c1CNCCCOc1cccnc1 — lower, -52.3%
- COc1ccc(Cn2cc(F)c(=O)n(C)c2=O)cc1[N+](=O)[O-] — lower, 11.1%
- CCCN(CC(=O)Nc1cc(Cl)ccc1Cl)C(=O)CN1C(=O)C2CCCCC2C1=O (stereo not drawn) — lower, -22.5%
- COc1ccccc1NC(=O)/C=C1\SCC(=O)N1C — lower, -21%
- Cn1c(=O)c2c(nc(NCCNC(=O)c3ccco3)n2Cc2ccccc2F)n(C)c1=O — lower, -1.1%
- COc1ccc(NC(=O)C2CCN(S(=O)(=O)c3ccc4c(c3)NC(=O)CO4)CC2)cc1 — higher, 18.4%
- O=C(O)c1cc(/C=C/c2ccc(N3CCOCC3)cc2)nc2ccccc12 — lower, 1.81%
- COc1ccc(C(=O)N/C(=C\c2cccc3ccccc23)C(=O)NCCc2c[nH]c3ccccc23)cc1OC — lower, 0.726%
- CCOc1nc(-c2ccccc2)ccc1-c1noc(COC)n1 — lower, 9.23%
- COc1ccccc1C(=O)NC(CCSC)C(=O)NCc1ccccn1 (stereo not drawn) — lower, 0.0482%
- CC1CC(=O)C2=C(C1)Nc1ccccc1N(C(=O)COc1ccccc1)C2c1ccco1 (stereo not drawn) — lower, -15.1%
- COc1ccc(Cl)cc1C(=O)Nc1cccc(-c2ccc3nncn3n2)c1 — lower, 4.13%
- Cc1nn(Cc2ccccc2)c(C)c1NC(=O)CCCn1nc([N+](=O)[O-])cc1C — lower, -9.35%
- COc1ccccc1CN=C1Nc2ccccc2CS1 — lower, -6.26%
- Cc1ccccc1N=C1SC(CC(=O)Nc2ccc3ccccc3c2)C(=O)N1Cc1ccccn1 (stereo not drawn) — lower, 11.1%
- COc1ccc2c(c1)C(SCC(=O)NCc1ccccc1)CC(C)(C)O2 (stereo not drawn) — lower, -17.5%
- CC(C)C(=O)NNS(=O)(=O)c1ccccc1[N+](=O)[O-] — lower, 3.1%
- O=C(Cc1cn2ccsc2n1)OCc1nc2ccccc2s1 — lower, 2.43%
- Cc1cccc(N/C(=N/S(=O)(=O)c2ccccc2)c2ccccc2)n1 — lower, -24.9%
- Cc1ccc2nc(-c3cccnc3)c(Nc3ccccc3C)n2c1 — higher, 15.9%
- O=C(Nc1nc2ccc(S(=O)(=O)N3CCCCC3)cc2s1)c1cccnc1 — lower, -26.9%
- COc1ccc(NC(=O)CCSCCC(=O)Nc2ccc(OC)cc2OC)c(OC)c1 — lower, 0.814%
- C/C(=N\Nc1ccc(Cl)c(C(=O)O)c1)c1ccc(Br)s1 — lower, -8.21%
- CC(=O)c1ccc(S(=O)(=O)NC2CCSc3ccccc32)cc1 (stereo not drawn) — lower, -5.32%
- CCC(=O)N1CCc2cc(S(=O)(=O)CCC(=O)NC(C)CC)ccc21 (stereo not drawn) — higher, 13%
- CCOC(=O)c1ccccc1NC(=O)COC(=O)CCCOc1ccccc1 — lower, 7.53%
- O=C(/C=C/c1ccc(F)cc1)NC(=S)N1CCCCC1c1cccnc1 (stereo not drawn) — lower, -68.1%
- Cc1ccc(S(=O)(=O)N2CCN(C(=O)c3cccs3)CC2)c(C)c1 — lower, -24.9%
- COc1ccccc1NC(=O)CSc1nnc(-c2ccco2)n1N — lower, -3.82%
- COc1ccc(CNc2nccs2)cc1OC — higher, 18.2%
- CC1CN(O)C2CCc3c(no[n+]3[O-])C12O (stereo not drawn) — lower, 5.23%
- COc1ccc(N(C(=O)c2snc(C(N)=O)c2N)C(C(=O)NC2CCCCC2)c2ccc(C)o2)c(OC)c1 (stereo not drawn) — lower, -7.44%
- COc1ccccc1-c1nnn(CC#N)n1 — lower, -0.346%
- CCOc1cc(Br)c(CC(=O)NC2CCCCCC2)cc1OCC — lower, 2.53%
- CC(C)(C)NC(=O)C(c1ccc(O)cc1)N(Cc1ccco1)C(=O)Cn1nnc(-c2cccs2)n1 (stereo not drawn) — lower, -29.9%
- CCNC(=O)COc1ccc(Br)cc1Cl — lower, 4.31%
- O=C(CSc1ccccc1C(=O)N1CCN(c2ccccc2)CC1)N1CCCC1 — lower, 6.45%
- COc1ccc(C(=O)OCC(=O)NC(=O)NC2CCCC2)c(OC)c1 — higher, 28.5%
- CCC(NS(=O)(=O)c1ccc(C)cc1)C(=O)N1CCOCCOCCOCC1 (stereo not drawn) — higher, 28.9%
- COc1ccccc1NC(=S)N(Cc1ccccn1)Cc1ccccc1Cl — lower, -9.66%
- O=C(CNC(=O)c1ccncc1)N/N=C/c1ccccn1 — higher, 12.7%
- O=C(Nc1ccc(Oc2ncnc3cc(Cl)ccc23)nc1)Nc1cccc(C(F)(F)F)c1 — lower, 0.134%
- O=C(NNC(=O)c1ccc(Cn2cccn2)o1)NC12CC3CC(CC(C3)C1)C2 — lower, 2.5%
- COC(=O)c1c(NC(=O)CCCC(=O)O)sc(C)c1C — lower, 10.3%
- CCOC(=O)C1CCCN(S(=O)(=O)c2nc3nc(C)cc(C)n3n2)C1 (stereo not drawn) — higher, 14.2%
- O=C(NCCCc1ccncc1)C1CCC(=O)N(Cc2ccc(Cl)cc2)C1 (stereo not drawn) — lower, -61.1%
- COc1ccc(-c2noc3c2-c2nc(-c4ccc(Cl)cc4)sc2CC3)cc1 — lower, 9.5%
- CCOC(=O)c1c(-c2ccccc2)n(C)c2ccc(O)cc12 — lower, 10.3%
- CCOC(=O)c1sc(NC(=O)c2cccnc2)c(C#N)c1C — higher, 27.1%
- O=C(NCc1ccc2c(c1)OCO2)c1ccc(CS(=O)(=O)c2cccc(C(F)(F)F)c2)o1 — lower, -24.2%
- COc1ccc(-c2cn3cccnc3n2)cc1NC(=O)c1cc(OC)c(OC)c(OC)c1 — lower, -10.9%
- CC(=O)Nc1ccc(-n2nnnc2SCC(=O)NCc2cccs2)cc1 — lower, 9.76%
- O=C(N/N=C/c1ccc(OCCCF)cc1)c1cc(OCC(F)(F)F)ccc1OCC(F)(F)F — lower, 10.3%
- CC(C)(C)n1nc2c(c1NC(=O)Cc1ccc(F)cc1)CSC2 — lower, 4.68%
- CC(=O)c1oc2ccccc2c1NC(=O)CCCN1C(=O)c2ccccc2C1=O — lower, 5.21%
- COc1ccc(-c2nc(C(N)=O)c3[nH]c(=O)n(-c4cccc(C)c4)c3n2)c(OC)c1 — lower, -16.8%
- CC(C)(Oc1ccc(Br)cc1)C(=O)N1CCc2ccccc21 — lower, 9.84%
- CS(=O)(=O)N1CCCC(C(=O)NCCCN2CCc3ccccc3C2)C1 (stereo not drawn) — lower, -7.27%
- Cc1c(NC(=O)C(C)c2ccc(CC(C)C)cc2)c(=O)n(-c2ccccc2)n1C (stereo not drawn) — lower, -9.77%
- CC(=O)Nc1ccc(S(=O)(=O)NNC(=O)c2ccc(C)cc2)cc1 — lower, -12.6%
- CCc1nnc(NC(=O)/C=C/c2ccco2)s1 — higher, 25.4%
- Nc1nc(Cl)cc(Oc2ccc(Cl)cc2)n1 — lower, 9.29%
- CC(C)(C)C(=O)/C=C(\N)c1ccncc1 — lower, 1.74%
- O=C1CSC(c2ccc([N+](=O)[O-])cc2)N1Cc1ccccc1 (stereo not drawn) — lower, -48.8%
- Cc1ccc(S(=O)(=O)N2CCN(C(=O)c3c(-c4ccccc4)noc3C)CC2)cc1C — lower, 1.83%
- O=S(=O)(c1cccc(S(=O)(=O)N2CCC(n3nnc4ccccc43)CC2)c1)N1CCCCC1 — lower, -55.7%
- COc1ccc(CN2CCN(Cc3cccc(Oc4ccccc4)c3)CC2)c(OC)c1OC.O=C(O)C(=O)O — lower, -58%
- Cn1c2ccccc2c2n[nH]c(=O)nc21 — higher, 17.5%
- O=C1CCCCN1CCC(=O)N1CCCC(N2CCN(c3cccc(Cl)c3)CC2)C1 (stereo not drawn) — lower, -21.3%
- C#CC1(O)CC(C)NCC1(C)CCC#N (stereo not drawn) — lower, 5.51%
- CCc1ccc(NC(=O)Cn2ncc3c4ccccc4n(C)c3c2=O)cc1 — lower, 11.6%
- Cc1cc([N+](=O)[O-])nn1Cc1ccccc1F — lower, 6.01%
- COCCn1c(SCC(=O)Nc2cc(C)on2)nc2c(c1=O)SC(C)C2 (stereo not drawn) — lower, 10.5%
- COC(=O)[C@@H]1C[C@@]2(O)[C@@H](O)[C@@H](O)[C@@H](O)C[C@H]2N1C/C=C/c1ccccc1 — lower, 11.2%
- COc1ccccc1-c1cc(C(F)(F)F)n2ncc(C(=O)N3CCc4ccccc4C3)c2n1 — lower, 0.682%
- Cc1cccc(-n2c(=O)c3c(C)c(C)sc3n(CC(N)=O)c2=O)c1 — lower, -13.2%
- O=C(CCc1nnc(C2CCCCC2)o1)NCCCOc1cccnc1 — lower, 10.6%
- O=C(O)C1CCCN1C(=O)NC1CCCCC1 (stereo not drawn) — higher, 20.8%
- Cc1sc2ncn(CC(=O)Nc3cccc(S(N)(=O)=O)c3)c(=O)c2c1-c1ccccc1 — lower, 9.25%
- Cc1ccc(C)c(-n2nnnc2Sc2nnnn2-c2ccccc2)c1 — lower, -13.8%
- Br.CCc1ccc(OCC(=O)NN2Cc3ccccc3C2=N)cc1 — lower, -38.8%
- NS(=O)(=O)c1ccc(NC(=O)COc2ccc(S(=O)(=O)N3CCCC3)cc2)cc1 — higher, 21%
